The campaign covered roughly 360,000 compounds. About 16,000 (4.4%) were called active. The inconclusive results got no clear call from the source; some entries with a clear call stand among them for comparison. Calls come from the whole dose curve; as a rule, active = well fitted inhibition curve with a large enough effect; inconclusive = small, poorly fitted or top-dose-only effect; inactive = no such curve, though single readings can be large or run the other way. A potency beside an inconclusive call is a rough fit, not a confirmed value.
What follows are compounds tested against Bromodomain adjacent to zinc finger domain protein 2B (Homo sapiens) (UniProt Q9UIF8) (assay: qHTS Assay for Inhibitors of BAZ2B). Conditions: AlphaScreen BAZ2B-H3K14Ac peptide displacement; series mostly up to 114 µM.
UniProt Q9UIF8, sequence (Q9UIF8 whole entry, looked up, the tested form may be a part): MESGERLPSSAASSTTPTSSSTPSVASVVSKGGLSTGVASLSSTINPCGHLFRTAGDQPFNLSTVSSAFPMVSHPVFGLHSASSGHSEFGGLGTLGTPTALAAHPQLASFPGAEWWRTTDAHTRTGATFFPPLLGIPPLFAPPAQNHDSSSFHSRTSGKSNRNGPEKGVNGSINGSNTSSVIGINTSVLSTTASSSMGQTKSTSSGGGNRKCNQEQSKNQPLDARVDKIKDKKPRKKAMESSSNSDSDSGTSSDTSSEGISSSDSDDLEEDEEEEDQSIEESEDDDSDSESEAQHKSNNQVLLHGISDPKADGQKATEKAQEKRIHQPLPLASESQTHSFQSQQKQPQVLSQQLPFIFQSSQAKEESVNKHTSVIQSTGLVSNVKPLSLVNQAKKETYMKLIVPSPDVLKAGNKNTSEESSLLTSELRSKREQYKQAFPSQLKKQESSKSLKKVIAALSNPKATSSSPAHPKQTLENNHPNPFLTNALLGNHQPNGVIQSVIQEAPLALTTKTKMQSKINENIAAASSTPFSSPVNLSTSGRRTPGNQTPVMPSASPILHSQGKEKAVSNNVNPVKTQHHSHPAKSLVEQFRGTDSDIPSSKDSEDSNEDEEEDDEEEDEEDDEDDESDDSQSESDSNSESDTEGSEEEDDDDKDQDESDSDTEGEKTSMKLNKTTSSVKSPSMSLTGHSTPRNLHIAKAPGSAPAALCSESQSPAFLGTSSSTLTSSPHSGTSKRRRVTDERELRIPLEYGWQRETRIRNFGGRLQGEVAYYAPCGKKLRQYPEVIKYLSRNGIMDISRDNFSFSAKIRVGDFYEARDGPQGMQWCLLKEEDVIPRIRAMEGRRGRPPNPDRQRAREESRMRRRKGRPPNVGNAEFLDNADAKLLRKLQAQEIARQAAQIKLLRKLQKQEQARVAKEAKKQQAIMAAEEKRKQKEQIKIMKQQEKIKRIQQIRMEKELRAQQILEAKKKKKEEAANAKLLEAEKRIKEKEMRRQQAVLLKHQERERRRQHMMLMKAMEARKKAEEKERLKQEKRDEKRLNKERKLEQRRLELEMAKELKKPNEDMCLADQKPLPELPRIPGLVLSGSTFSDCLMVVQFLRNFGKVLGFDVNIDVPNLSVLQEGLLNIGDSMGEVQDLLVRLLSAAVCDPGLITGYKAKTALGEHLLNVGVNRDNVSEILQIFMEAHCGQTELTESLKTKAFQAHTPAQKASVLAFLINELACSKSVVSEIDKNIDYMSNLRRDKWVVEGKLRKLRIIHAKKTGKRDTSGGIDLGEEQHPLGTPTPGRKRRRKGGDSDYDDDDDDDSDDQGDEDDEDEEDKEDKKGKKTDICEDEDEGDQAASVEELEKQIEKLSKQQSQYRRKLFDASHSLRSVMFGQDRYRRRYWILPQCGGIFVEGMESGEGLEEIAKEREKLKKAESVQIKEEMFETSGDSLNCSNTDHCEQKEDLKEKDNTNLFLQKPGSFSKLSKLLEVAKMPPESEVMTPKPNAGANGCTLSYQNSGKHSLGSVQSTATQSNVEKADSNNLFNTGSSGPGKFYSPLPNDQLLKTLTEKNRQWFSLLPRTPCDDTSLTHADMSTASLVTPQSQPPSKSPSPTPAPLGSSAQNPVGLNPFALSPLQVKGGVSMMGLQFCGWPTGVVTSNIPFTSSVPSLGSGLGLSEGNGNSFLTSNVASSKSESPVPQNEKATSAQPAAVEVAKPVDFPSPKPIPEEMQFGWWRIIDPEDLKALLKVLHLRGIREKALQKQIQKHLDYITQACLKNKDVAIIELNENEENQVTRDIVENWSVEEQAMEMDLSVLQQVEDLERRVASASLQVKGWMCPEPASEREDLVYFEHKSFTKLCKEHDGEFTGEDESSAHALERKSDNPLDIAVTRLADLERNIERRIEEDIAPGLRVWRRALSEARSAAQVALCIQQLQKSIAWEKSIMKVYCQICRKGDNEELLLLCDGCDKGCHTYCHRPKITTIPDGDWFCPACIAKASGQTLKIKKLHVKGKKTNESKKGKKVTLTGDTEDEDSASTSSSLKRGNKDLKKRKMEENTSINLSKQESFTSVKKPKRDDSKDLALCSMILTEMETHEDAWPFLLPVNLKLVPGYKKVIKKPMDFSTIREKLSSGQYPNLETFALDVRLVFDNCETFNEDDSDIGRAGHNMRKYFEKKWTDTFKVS
Summary of the method: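 AlphaScreen luminescence quantifies BAZ2B engagement of H3K14Ac peptide; the protein and biotinylated peptide are both at 50 nM final, buffer PBS pH 7.4 with 0.01% Tween-20, all steps at room temperature.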
Note: nearly all actives have a fitted effect of over 60% in size.
Potency is the fitted concentration of half-maximal effect; tags give direction and shape of the fitted curve.

| Compound | Potency |
| --- | --- |
| O=C1CCC(=O)N1OCCOc1ccc(Cl)c2ccccc12 | inactive |
| Cc1ccccc1Nc1nc(N)nc(CN2CCN(Cc3ccc4c(c3)OCO4)CC2)n1 | inconclusive: 25.1 µM [inhibitor, full curve] |
| Cc1cc2cc(CNC(=O)c3ccc(C)c([N+](=O)[O-])c3)ccc2[nH]1 | inconclusive: 39.8 µM [inhibitor, partial curve] |
| Cc1cccc(OCC(=O)N(Cc2cccs2)C2CCS(=O)(=O)C2)c1C (configuration not stated) | inactive |
| COc1ccc(NC(=O)Cn2ncc3c(C)n(Cc4cccc(Cl)c4)c(C)c3c2=O)cc1 | inactive |
| CC(=O)Nc1ccc(S(=O)(=O)NC(C)c2ccccc2)cc1 (configuration not stated) | inactive |
| COc1cc(NC(=S)Nc2cccnc2)cc(OC)c1OC | inactive |
| CNC(=O)c1sccc1Oc1ccc(F)cc1[N+](=O)[O-] | inconclusive: 89.1 µM [inhibitor, single point] |
| CCC1(CC)NC(=O)N(CC(=O)Nc2sc3c(c2C(N)=O)CCC3)C1=O | active: 50.1 µM |
| CCNC(=S)N(CCc1cccc(C)c1)Cc1cc2cc(OC)c(OC)cc2[nH]c1=O | inconclusive: 79.4 µM [inhibitor, single point] |
| O=C(c1ccc2c3c(cccc13)CC2)C1CCCN(Cc2ccc(OCCO)cc2)C1 (configuration not stated) | inconclusive: 22.4 µM [inhibitor, full curve] |
| O=C(CN1CCN(c2ccc(F)cc2)CC1)NCc1ccc(F)cc1 | inactive |
| COc1ccc(NC(=O)CN2CCN(c3nc(-c4cccc(OC)c4)cs3)CC2)cc1 | inconclusive: 35.5 µM [inhibitor, partial curve] |
| O=C1CC(NCCC2=CCCCC2)C(=O)N1c1cccc(Cl)c1Cl (configuration not stated) | inconclusive: 79.4 µM [inhibitor, single point] |
| S=C(NCCc1cccc(Cl)c1)NC1CCCCC1 | inconclusive: 79.4 µM [inhibitor, single point] |
| O=C(N/N=C/c1cccc(Br)c1)c1ccc(Br)cc1 | inconclusive: 56.2 µM [inhibitor, partial curve] |
| COc1ccccc1-c1noc(-c2cccnc2)n1 | inactive |
| CCC(C)/C=C/C1=CC2=C(Cl)C(=O)C3(C)OC(=O)C(C(=O)C(C)C(C)O)C3C2=CO1 (configuration not stated) | inconclusive: 79.4 µM [inhibitor, partial curve] |
| O=C(Nc1ccc(-n2cccn2)cc1)C1CCCCN1Cc1cccc2cccnc12 (configuration not stated) | inconclusive: 70.8 µM [inhibitor, single point] |
| O=C(c1ccco1)N1CCN(C(c2ccccc2F)c2nnnn2Cc2cccs2)CC1 (configuration not stated) | inconclusive: 89.1 µM [inhibitor, single point] |
| Cc1cn2c(N)c(C=C3C=C(Cl)C(=O)C(Cl)=C3)c(=O)nc2s1 | inconclusive: 89.1 µM [inhibitor, single point] |
| O=C(O)CCCn1cc(NC(=O)COc2ccc(F)cc2F)cn1 | inactive |
| O=S1(=O)CCC(N=Nc2c(O)n(Cc3ccccc3)c3ccccc23)C1 (configuration not stated) | inconclusive: 50.1 µM [inhibitor, partial curve] |
| O=S1(=O)C[C@@H](N2CCOCC2)[C@H](N2CCOCC2)C1 | inactive |

| Compound | Potency |
| --- | --- |
| COc1ccccc1NC(=O)C1=C(C)Nc2nc(SCc3ccccc3F)nn2C1c1ccncc1 (configuration not stated) | inconclusive: 89.1 µM [inhibitor, single point] |
| Cc1cc(C)c(S(=O)(=O)NCC(c2cccnc2)N2CCN(Cc3ccccc3)CC2)c(C)c1 (configuration not stated) | inconclusive: 70.8 µM [inhibitor, single point] |
| Cc1ccc(N/N=C(\C#N)C(N)=S)c(C)c1 | inconclusive: 89.1 µM [inhibitor, single point] |
| O=C(NC1CCN(Cc2ccccc2)CC1)c1cccc(Br)c1 | inactive |
| Cc1[nH]n(-c2ccccc2)c(=O)c1/C=N/NC(=O)c1ccc(O)cc1O | active: 25.1 µM |
| COc1ccc(CCN(Cc2ccccn2)C(=S)Nc2ccccc2Cl)cc1OC | inactive |
| Cc1ccc(S(=O)(=O)c2nnn3c2nc(NCc2ccccc2)c2sccc23)cc1 | inconclusive: 79.4 µM [inhibitor, partial curve] |
| CC(=O)NC1C(=O)N(Cc2ccccc2)c2ccc(Br)cc21 (configuration not stated) | inactive |
| COc1ccc(N(C(=O)Cn2nnc(-c3ccc(F)cc3)n2)C(C)C(=O)NC2CCCC2)cc1OC (configuration not stated) | inactive |
| CCCCN(CC)C(=S)Nc1ccc2nc(N3CCN(C)CC3)cc(C)c2c1 | inconclusive: 79.4 µM [inhibitor, single point] |
| CC(C)[C@@H]1NC(=O)c2cc([N+](=O)[O-])cc(I)c2NCCCC[C@@H](C(=O)NC(CC(=O)O)C(N)=O)NC(=O)[C@H](CO)NC1=O (some centres not stated) | active: 50.1 µM |
| N#CC(C#N)=CC1=C2OC(c3ccccc3)=CC(c3ccccc3)=C2CCC1 | inconclusive: 0.708 µM [inhibitor, full curve, poor fit] |
| CCc1cc(-c2n[nH]c(=S)n2N)n(C)n1 | active: 79.4 µM |
| O=S(=O)(c1cccc(-c2csc(N/N=C/c3ccco3)n2)c1)N1CCOCC1 | inconclusive: 31.6 µM [inhibitor, partial curve] |
| COc1ccc(C(CC(=O)N2CCCC2)c2c(OC)cc(OC)c3ccc(=O)oc23)cc1 (configuration not stated) | inactive |
| Cc1nn(S(=O)(=O)c2ccc(C(C)(C)C)cc2)c(C)c1S(=O)(=O)N1CCOCC1 | inactive |
| O=C(NNC(=O)C1COc2ccccc2O1)c1ccccc1O (configuration not stated) | inactive |
| NS(=O)(=O)c1ccc(CCNC(=O)C2Cc3ccccc3CN2C(=O)c2ccco2)cc1 (configuration not stated) | inactive |
| O=C(C1=C(O)C(=O)N(CCN2CCOCC2)C1c1cccc(Br)c1)c1cccs1 (configuration not stated) | inactive |
| CN(C)c1cccc(NC(=O)c2ccco2)c1 | inconclusive: 79.4 µM [inhibitor, single point] |
| CCOC(=O)C(CCCCCOc1ccc([N+](=O)[O-])cc1)C(=O)OCC | inactive |
| c1ccc(CNC2=NCCCC2)cc1 | inconclusive: 79.4 µM [inhibitor, single point] |
| CSCCC(NC(=O)COc1ccccc1)C(=O)NCCOc1ccc(C)cc1 (configuration not stated) | inconclusive: 79.4 µM [inhibitor, single point] |
